The source gives no read counts; variants with many changes may rest on few reads.

B1: LINE1-mini (parent)
chain: GGCAGAGCUCAACACAGCGUGGCAAAGUGGCUGUGGCUAGACUGCC

Variants of B1 are the subject of the data set. Kind of data set: self-cleavage, relative activity (ratio to wild type); higher = more cleavage; in vitro, sequencing; the parent is a self-cleaving ribozyme.
On to GGCAGAGCUCAAUACAGCCUGGCCUCGUGGCUAUGGCUAGACUGCC [C13U G19C A24C A25U A26C G33A], for which the self-cleavage worked out at 0.06.

Take GGCAGAGCUCAAUACAGCGUGACCAAGUGGCUGUGGCUAGACUGCC [C13U G22A A24C]: the self-cleavage was 0.17. As for GGCAGAGCUCAAUACAGCGUGACUAAGUGGCUGUGGCUAGACUGCC [C13U G22A A24U], the figure is 0.14; as for GGCAGAGCUCAAUACAGCGUUGCAAAGUGGCUGUGGCUACACUUCC [C13U G21U G40C G44U], 0.06; as for GGCAGAGCUCAAUACACCGUGGCAAAGUGGCUAUGGCUAGACUGCC [C13U G17C G33A], 0.11. To GGCAGAGCUCAAUACAGCAUGGCAAAGUGGCUGUGGCUAGACUGCU [C13U G19A C46U] belongs 0.29; to GGCAGAGCUCAAUACAGCGUGGCAAAGUGGCUAUAGCUAGACUGCC [C13U G33A G35A], 0.14; to GGCAGAGCUCAAUACAGCGUGUCAAAGUGGCUGUGACUAGACUGCC [C13U G22U G36A], 0.42. To GGCAGAGCUCAAUACAUGGUGGCAAAGUGGCUGUGGCUAGACUGCC [C13U G17U C18G] belongs 0.07; to GGCAGAGCUCAAUACAGCGUGGCAAAGUGGCUGGGGCUAGAUUGCC [C13U U34G C42U], 0.01; to GGCAGAGCUCAAUACAGCGUGGCAAAUUGGCUGUGGCUAGGCUGCC [C13U G27U A41G], 0.04. Consider GGCAGAGCUCAAUACAGCGUGGCAAAGUGCCUGUGGCUAGACAGCC [C13U G30C U43A], for which the self-cleavage amounted to 0.09.

Regarding GGCAGAGCUCAAUACAGCGUGGCAAAGUAGCUGUGGAUCGACUGCC [C13U G29A C37A A39C], the self-cleavage was 0.07. As for GGCAGAGCUCAAUACAGCGAGGCCAAGUGGCUGUGGCUAGACUGGC [C13U U20A A24C C45G], the figure is 0.04. As for GGCAGAGCUCAAUACAGCGUGUAAAAGUGGCUCUGGCUAGACUGCC [C13U G22U C23A G33C], the figure is 0.03. To GGCAGAGCUCAAUACAGCGUGGCAAAUUGGCUUUGGCUAGACUGCC [C13U G27U G33U] belongs 0.03; to GGCAGAGCUCAAUACAGCGUGGCAAAGUUGCUGUGGCUAGACUCCC [C13U G29U G44C], 0.13. For the variant GGCAGAGCUCAAUACAGCGUCGCAAAGUCGCUGUGGCUAGACUGCC [C13U G21C G29C], the self-cleavage was determined as 0.06.

For the variant GGCAGAGCUCAAUACACCGUGGCAAAGAGGCUGUGGCUAGAGUGCC [C13U G17C U28A C42G], the self-cleavage amounted to 0.02. With GGCAGAGCUCAAUACAGCGGGGUAAAGUGGCUGUGGCUAGACUGCC [C13U U20G C23U], the self-cleavage stood at 0.05. As for GGCAGAGCUCAAUACAGCGUGGCAAAGUGGCUGGGGCCAUACUGCC [C13U U34G U38C G40U], the figure is 0.02.

For GGCAGAGCUCAAUACAGCGUGGCAAAGUGGCUGUAGCUCGACUGCC [C13U G35A A39C], the self-cleavage worked out at 0.06. To GGCAGAGCUCAAUACAGCGUGGCAAAGUGGCUGUGGCAAGGCUGCC [C13U U38A A41G] belongs 0.07. For the variant GGCAGAGCUCAAUACAGCGUGGCAAAGUGGCUGUGGCUAGACUCUC [C13U G44C C45U], the self-cleavage was 0.11. To GGCAGAGCUCAAUACAGCGUUGCAAACUGGCUGUGACUAGACUGCC [C13U G21U G27C G36A] belongs 0.29. As for GGCAGAGCUCAAUACAGCGUGGCAAAGUGGCUGUGGCUAGACAUCC [C13U U43A G44U], the figure is 0.07; as for GGCAGAGCUCAAUACAGCGUCGCACAUUGGCUGUGGCUAGACUGCC [C13U G21C A25C G27U], 0.04; as for GGCAGAGCUCAAUACAGCAUGGCAAAGUGGCUGAGGCUAGACUGCC [C13U G19A U34A], 0.04.

In the case of GGCAGAGCUCAAUACAGCGUGCCACAGUGGCUUUGGCUAGACUGCC [C13U G22C A25C G33U], the self-cleavage was found to be 0.03. For the variant GGCAGAGCUCAAUACAGCAUGGCCAAGUGGUUGUGGCUAGACUGCC [C13U G19A A24C C31U], the self-cleavage came out at 0.01. As for GGCAGAGCUCAAUACAUCGUGGAAAAGUGGCCGUGGCUAGACUGCC [C13U G17U C23A U32C], the figure is 0.05; as for GGCAGAGCUCAAUACAGCGUGGCAAAUUGGAUGUGGCUAGACAGCC [C13U G27U C31A U43A], 0.08; as for GGCAGAGCUCAAUACAGCGUGGCAAACUGGCUGUGGCUAAACUGCC [C13U G27C G40A], 0.11. To GGCAGAGCUCAAUACAGCGGUGCAAAGUGGCUGUGGCUAGACUGCC [C13U U20G G21U] belongs 0.14; to GGCAGAGCUCAAUACAGCUUGGCCAUGUGGCUGUGGCUAGACUGCA [C13U G19U A24C A26U C46A], 0.06. For the variant GGCAGAGCUCAAUACAGCGUGGCAAAGUGGCUGUGGCUAAGCUGCC [C13U G40A A41G], the self-cleavage was determined as 0.08. For GGCAGAGCUCAAUACAGCGUGGCAAAGUGGCUGUUUCUAGACUGUC [C13U G35U G36U C45U], the self-cleavage amounted to 0.18. As for GGCAGAGCUCAAUACAGCGUUGCCAAGUGGCUGUGCCUAGACUGCA [C13U G21U A24C G36C C46A], the figure is 0.05; as for GGCAGAGCUCAAUACAGCGUGGCAAAAUGGCUCUGGCUAGACUGUC [C13U G27A G33C C45U], 0.04; as for GGCAGAGCUCAAUACAGCGUGGCAAAGAGGCUGAGGCUAGACUGCC [C13U U28A U34A], 0.08. In the case of GGCAGAGCUCAAUACAGCGUGGCAAAGUGGCUGUGGCCAUACUGCC [C13U U38C G40U], the self-cleavage came out at 0.05. To GGCAGAGCUCAAUACAUCGUGGCGAAGUGGCUGUGGCUAGACUGAC [C13U G17U A24G C45A] belongs 0.01; to GGCAGAGCUCAAUACAGCGUCGCAAAGUAGCUUUGGCUAGACUGCC [C13U G21C G29A G33U], 0.03.

With GGCAGAGCUCAAUACAUCAUGGCAAAGUGGCUAUGGCUAGAAAGCU [C13U G17U G19A G33A C42A U43A C46U], the self-cleavage was 0.06. As for GGCAGAGCUCAAUACAGCGUGGCAAAGUGCCUAUAGCUAGAGUGCC [C13U G30C G33A G35A C42G], the figure is 0.04; as for GGCAGAGCUCAAUACAGCGUGGCAAAGUCGCUGUGGCUACCCUGCC [C13U G29C G40C A41C], 0.05. To GGCAGAGCUCAAUACAGCGUGGCAAAGUGGCUGACGCUAGACUGCC [C13U U34A G35C] belongs 0.03. To GGCAGAGCUCAAUACAGCGUGUCAAAGUGGCUGUUGCUAGACUGCC [C13U G22U G35U] belongs 0.23. With GGCAGAGCUCAAUACAGCGUGGCAAAGUGGCUGUGGCUAUACUGCG [C13U G40U C46G], the self-cleavage amounted to 0.11. As for GGCAGAGCUCAAUACAGCGUGCCAAAGUGGCUGUGGCUAGACUUCC [C13U G22C G44U], the figure is 0.12. To GGCAGAGCUCAACCCCGCGUGGCAAAGUGGCUGUGGCUAGCCUGCC [A14C A16C A41C] belongs 0.02; to GGCAGAGCUCAAUACAGCCUGGCAAAGUGGGUGUGGCUAGACUGCG [C13U G19C C31G C46G], 0.12; to GGCAGAGCUCAAUACAACGCGGCAAAGUGGCUGUGGCUAGACUGCG [C13U G17A U20C C46G], 0.01.

For the variant GGCAGAGCUCAAUACAGCGUGGCAAAGUGGCUGUGGCUACACGGCC [C13U G40C U43G], the self-cleavage was 0.04. To GGCAGAGCUCAAUACAGCUUGGCAAAGUGGCUGUGGAUAGACUGCC [C13U G19U C37A] belongs 0.16; to GGCAGAGCUCAAUACAGCGUAGCAAAGUGGCUGUGGCUAGACUUCC [C13U G21A G44U], 0.4.
